Where “and” joins values, the source holds several entries; their conditions need not be identical. Equal entries are not always repeated.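 Following 48 hours of exposure in 96-well plates, responses at five concentrations were used to interpolate endpoints linearly. GI50 = concentration required for 50% inhibition of growth. TGI denotes the concentration required for complete inhibition of growth.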 Square brackets hold non-standard residues; d marks the D form. Peptide text beside a SMILES is read from it. * marks the point of attachment. ξ: configuration not given here. dTle = CC(C)(C)[C@@H](N)C(=O)O; ξLac(3-iPr) = CC(C)CC(O)C(=O)O; NMeV = CN[CH](C(=O)O)C(C)C; 4Abz = Nc1ccc(C(=O)O)cc1; NMeA = CN[CH](C)C(=O)O; βAla = NCCC(=O)O; NHOH = ON*
Test system: NCI-H322M lung
Assay: NCI anticancer screen, dose series, 48 h

C[C@@H](NC(=O)[C@H](NC(=O)[C@@H]1CCCN1C(=O)CNC(=O)c1ccc(N)cc1)C(C)(C)C)C(=O)NO (H-[4Abz]GP[dTle][dA]-{NHOH})
GI50: > 100 µM
TGI: > 100 µM

O=C1NC(N2CCCCC2)=N/C1=C\c1ccc(Cl)cc1
TGI: > 100 µM

O=c1c(-c2ccccc2F)coc2cc(F)ccc12
TGI: > 100 µM

O=C(CCc1ccccc1)n1cccc1CO
TGI: > 100 µM

CC(=O)n1cc(OP(=O)(Oc2ccccc2)Oc2ccccc2)c2ccccc21
TGI: > 100 µM

CSC(=S)OC1CC(n2cnc3c(NC(=O)c4ccccc4)ncnc32)OC1CO[Si](C)(C)C(C)(C)C (configuration not stated)
TGI: > 56.2 µM

Cc1ccc(C2COc3cc(O)c(O)cc3C2)cc1 (configuration not stated)
TGI: 187 µM

CN(C(=O)C1=CCC2(CC1)OCCO2)c1ccccc1I
TGI: > 100 µM

O=C1C=CC(=O)N1c1cccc(N2C(=O)C=CC2=O)c1
GI50: 22.9 µM
TGI: 43.3 µM

COC(=O)C(Br)C1CCc2ccccc21 (configuration not stated)
TGI: > 100 µM

O=C1c2ccccc2C2C1C(c1ccccc1)C1(Cc3ccccc3C1=O)C2c1ccccc1 (configuration not stated)
TGI: > 100 µM

O=NNc1ccc(Sc2ccc(NN=O)cn2)nc1
TGI: > 100 µM

CC(CN(C)C)Oc1ccccc1NC1=C(Cl)C(=O)C(Nc2ccccc2OC(C)CN(C)C)=C(Cl)C1=O (configuration not stated)
GI50: 1.76 µM
TGI: 3.86 µM

CN(CC(=O)Nc1nc2ccccc2[nH]1)S(=O)(=O)c1ccc(Cl)cc1
GI50: > 100 µM
TGI: > 100 µM

O=C(N/N=C/c1ccc([N+](=O)[O-])cc1)Nc1ccc(Br)cc1
TGI: > 100 µM

CO/N=C(\COc1ccc2oc(-c3ccccc3)cc(=O)c2c1)c1ccc(OC)cc1
GI50: 34.7 µM
TGI: > 100 µM

Cc1cc2c(C(N)=O)c(N)n(-c3c(C)ccc(O)c3C)c2nc1C
GI50: 9.26 µM
TGI: 96.6 µM

COc1cc2nccc(Oc3ccc(NC(=O)Nc4cc(C)on4)c(Cl)c3)c2cc1OC
GI50: 4.58 µM and 9.17 µM
TGI: 99.8 µM and > 10 µM

C=C1C(=O)O[C@H]2[C@H]1CC/C(COC(=O)C(C)c1ccc(CC(C)C)cc1)=C\CC[C@@]1(C)O[C@@H]21 (some centres not stated)
GI50: 1.7 µM
TGI: 3.68 µM

O=c1[nH]c(=O)n(C2CC(O)C(CO)O2)c2nc3ccc4cc5ccccc5cc4c3nc12 (configuration not stated)
TGI: > 100 µM

O=C1c2c(ccc3c2CCC3)CC12Cc1ccccc1C2
TGI: 40.9 µM

Cc1ccc(OCC2OC(n3cnc4c(Cl)nc(Cl)nc43)CC2Oc2ccc(C)cc2)cc1 (configuration not stated)
TGI: 11 µM

CSc1snc2sc3c(Cl)nnnc3c12
TGI: 30 µM

O=C1OC(C2(O)OC(=O)c3ccccc32)c2ccccc21 (configuration not stated)
TGI: > 100 µM

O=C1C2C(C(=O)N1c1ccccc1)C1([N+](=O)[O-])C=C3c4ccccc4N(C(=O)c4ccccc4)C32C2C(=O)N(c3ccccc3)C(=O)C21 (configuration not stated)
TGI: > 100 µM

CN(C)c1snc2c1c(=O)n(C)c(=O)n2C
TGI: > 100 µM

CCN(CC)c1ccc2nc3ccc(N=Nc4c(O)ccc5ccccc45)cc3[n+](-c3ccccc3)c2c1
TGI: > 100 µM

CN(C)c1ccc(/C=C2\N=C(N/N=C/c3ccccc3O)NC2=O)cc1
TGI: > 100 µM

COc1cc(/C=C\c2nnc(/C=C\c3ccc(O)c(OC)c3)s2)ccc1O
TGI: 27.8 µM

Clc1ccc(OCc2nnc3sc(-c4ccc(-c5ccc(Cl)cc5Cl)o4)nn23)cc1
TGI: > 100 µM

Cn1c2ccccc2c(=O)c2cccc(C(=O)NCC(=O)O)c21
TGI: > 100 µM

COC(=O)[C@H]1COC(=O)N1
TGI: > 100 µM

COc1cc2c(cc1O)C1(Cc3ccc4c(c3C1=O)OCO4)N(C)CC2 (configuration not stated)
TGI: > 100 µM

Oc1cc(N2CCCC2)ccc1/C=N/N1C(=S)N(c2ccccc2)C(=Nc2ccccc2)C1=Nc1ccccc1
TGI: > 100 µM

CCOC(=O)C#Cc1c(C(=O)OCC)nnn1Cc1ccc([N+](=O)[O-])cc1
GI50: 15.2 µM
TGI: 30.3 µM

CN=C(N)c1ccc(N=C(N)c2ccc(C(N)=Nc3ccc(C(N)=NC)cc3)cc2)cc1
TGI: > 100 µM

CCCCCCCCCCCCCCCCCCNc1nc(=O)n(C2CC(O)C(COP(=O)(O)OCC3OC(n4ccc(N)nc4=O)C(O)C3O)O2)cc1F (configuration not stated)
TGI: > 100 µM

COc1ccc(N=NC(=Nc2ccc(Cl)cc2)c2ccc(N(CCC#N)CCC#N)cc2)cc1
TGI: > 100 µM

Fc1cccc(-n2ccc(-c3ccccc3)nc2=S)c1
GI50: 18.8 µM
TGI: 36.3 µM

CN(Cc1cc(Br)cc(Br)c1O)Cc1c(O)ccc2ccccc12
TGI: 33.4 µM

Cc1cn2c(/C=N/N=C(N)N)c(-c3ccccn3)nc2s1
GI50: 16.8 µM
TGI: 32.6 µM

COc1ccc(/C(=C/n2ccnc2)C(O)c2ccc(OC)c(OC)c2)cc1OC (configuration not stated)
TGI: > 100 µM

CSC1=NNC(SC)=NN1
TGI: 0.322 µM

O=c1cc(N=Nc2ccc(Cl)c(Cl)c2)[nH]c(=O)[nH]1
TGI: 24.6 µM

O=S1(=O)OCCOS(=O)(=O)C1Cc1cccc2ccccc12
TGI: 47.4 µM

Clc1ccccc1CNc1c2ccccc2nc2ccccc12
GI50: 2.18 µM
TGI: 8.49 µM

O=C1/C(=C/c2ccc(Oc3ccccc3)cc2)N=C(c2ccccc2)N1c1ccc(S(=O)(=O)Nc2nccs2)cc1
TGI: > 100 µM

COC(=O)C1Cc2ccc3c(c2C1=O)CCCC3 (configuration not stated)
TGI: > 100 µM

CCOC(=O)c1cc(-c2ccccc2)[nH]c1N/N=C/c1ccc(Cl)cc1
GI50: > 100 µM
TGI: > 100 µM

C#Cc1cc(Br)c(OC(=O)C(C)(C)C)c(-c2cc(C#C)cc(Br)c2OC(=O)C(C)(C)C)c1
TGI: > 100 µM

O=C(NO)[C@@H](Cc1ccccc1)NS(=O)(=O)c1ccc(-c2ccccc2)cc1
GI50: 11.4 µM
TGI: > 25 µM

CC(C)Oc1cccc(N2C(=NCCc3c[nH]c4ccccc34)Nc3ccncc3S2(=O)=O)c1
TGI: > 100 µM

CC1=C(C(=O)Nc2cc(Cl)c3[nH]ncc3c2)C(c2ccc(C(F)(F)F)cc2)CC(=O)N1 (configuration not stated)
GI50: > 25 µM
TGI: > 25 µM

Oc1ccc(C2c3ccccc3Oc3ccccc32)c2cccnc12
GI50: 1.87 µM
TGI: > 100 µM

COC(=O)c1cc2c3ccccc3[nH]c2c2sccc12
GI50: 38.2 µM
TGI: > 100 µM

CCCCCCCCCCCCCCCCCCOCC(CCP(=O)(CP(=O)(O)O)Oc1ccccc1)OCCCCCCCCCCCCCCCCCC (configuration not stated)
TGI: > 100 µM

O=C(c1ccccc1)C1C(c2ccccc2)N1S(=O)(=O)c1ccccc1 (configuration not stated)
TGI: > 100 µM

CCOC(=O)c1cnc2sc3ccc4ccccc4c3n2c1=O
TGI: > 100 µM

O=c1cc(-c2ccco2)[nH]c2cc3c(cc12)OCO3
TGI: > 100 µM

N=CN=CC(=S)O[C@@H]1C(=O)N2CCC[C@@]23CCCC[C@@H]13
TGI: > 12.5 µM

NS(=O)(=O)CC1CC[CH-]CC1.[Cl-].[Cl-].[Cl-].[Cl-].[Cl-].[Sb+5].c1ccncc1
GI50: > 100 µM
TGI: > 100 µM

Cc1ccc(NS(=O)(=O)c2cccc(C#N)c2)c2[nH]cc(C#N)c12
GI50: 32.9 µM and 34.5 µM
TGI: > 100 µM

CC(=[N-])N1CCC[C@@H](Nc2c3ccccc3nc3ccccc23)C1.[Cl][Pt].[NH-]CCC[NH-]
GI50: 1.25 µM
TGI: > 42.9 µM

O=S(=O)(SC1=NCCN1)c1cccc2ccccc12
TGI: > 100 µM

NC1=NN(c2ccccc2)C(=O)C1C(=O)C(=O)Nc1nccs1 (configuration not stated)
TGI: > 100 µM

C/C=C(\CCOS(=O)(=O)c1ccc(C)cc1)[Si](C)(C)C
TGI: > 100 µM

CC(C)(C)c1ccc(OCCOCCOc2ccc(C(C)(C)C)cc2S(=O)(=O)Nc2ccc([N+](=O)[O-])cc2)c(S(=O)(=O)Nc2ccc([N+](=O)[O-])cc2)c1
TGI: > 100 µM

C=C1C(OC(=O)/C=C/c2ccccc2)CC(OC(C)=O)C2(C)C1CC1CC(OC(C)=O)C(C)=C(C(OC(C)=O)C2OC(C)=O)C1(C)C (configuration not stated)
TGI: > 100 µM

CC1(N)CCN(c2cnc(-c3cccc(Cl)c3Cl)c(N)n2)CC1
GI50: 5.37 µM
TGI: > 100 µM

COC(=O)C(COC(=O)/C=C/c1ccc(OC(C)=O)c(OC(C)=O)c1)NC(=O)/C=C/c1ccc(OC(C)=O)c(OC(C)=O)c1 (configuration not stated)
TGI: 71 µM

O=C1C2CCN(CC2)C1(CO)CO
TGI: > 94.5 µM

O=C1NNC2NC(=O)C3(NN2C1=O)c1ccccc1-c1ccccc13 (configuration not stated)
TGI: > 100 µM

N#Cc1cc(S(=O)(=O)Nc2nnc(-c3ccccc3)c(-c3ccccc3)n2)c(SCc2ccccc2)cc1Cl
GI50: 20.2 µM
TGI: 39 µM

N#CC1(C#N)C2C=CC(c3coc4cccc2c34)C1(C#N)C#N (configuration not stated)
TGI: 32 µM

N#CC(C#N)N=Nc1ccc(-c2nc3ccccc3o2)cc1
TGI: 58.9 µM

C/C=C1\CN2CCc3c([nH]c4ccccc34)C2C=C1CCO (configuration not stated)
TGI: > 340 µM

Cc1cccc2c1CCC21OC(=O)c2c1ccc1ccccc21 (configuration not stated)
TGI: > 100 µM

CC(=O)O[C@H]1[C@@H]2OC(=O)C(CSc3ccccc3)[C@@H]2C[C@H]2O[C@]2(C)CC/C=C(\C)CCC[C@@H]1C (some centres not stated)
GI50: 8.22 µM
TGI: 49.1 µM

C[N+](C)(C)CC(=O)N/N=C(\C(=O)NC1=C(Cl)C(=O)c2ccccc2C1=O)C(C#N)c1nc(-c2ccc([N+](=O)[O-])cc2)cs1 (configuration not stated)
TGI: 28.2 µM

CC(C)=CCC/C(C)=C\CCC1(C)OC(=O)C2CC21 (configuration not stated)
TGI: > 100 µM

Cc1[nH]c(=O)[nH]c1C(=O)c1ccc(-n2ccnc2)cc1
TGI: > 100 µM

CCC(C)C1NC(=O)C2CCCN2C(=O)C(CC(C)C)OC(=O)CCNC(=O)C(C)N(C)C(=O)C(C(C)C)N(C)C1=O (configuration not stated) (cyclo([ξLac(3-iPr)]PI[NMeV][NMeA][βAla]); configuration not given here)
TGI: > 81.2 µM

CC(=O)OCC1OC(O[C@@H]2C[C@H]3C(C)(C)[C@@H](OC(C)=O)CC[C@]3(C)[C@H]3CC[C@]45C[C@]4(CC[C@H]5[C@@H](C)C[C@@H](O)[C@H](O)C(C)(C)F)[C@@]32C)C(O)C(O)C1O (some centres not stated)
TGI: 3.05 µM

CCNC12CCC(C1)C(C)(C)C2=O (configuration not stated)
TGI: > 100 µM

c1ccc(C(=NCCC2CNc3ccccc32)c2ccccc2)cc1 (configuration not stated)
TGI: > 100 µM

O=C(Nc1cccc(-c2ccc(Cl)c(C(F)(F)F)c2)c1)C1CCN(Cc2cccc3cccnc23)CC1
GI50: 1.68 µM
TGI: 3.07 µM

CN(C)c1ccc(C2CC(c3ccc4ccccc4c3O)=NN2c2ccc([N+](=O)[O-])cc2[N+](=O)[O-])cc1 (configuration not stated)
TGI: > 100 µM

COc1ccc2c(c1)C(=O)/C(=C/c1ccc([N+](=O)[O-])o1)O2
TGI: > 22.9 µM

COc1cc(C(=O)CC2OC(=O)C(Cl)=C2Cl)ccc1Cl (configuration not stated)
TGI: > 100 µM

CCn1c(-c2nonc2N)nc2c(C#CC(C)(C)O)ncc(OC[C@H]3CCCNC3)c21
GI50: 19.2 µM
TGI: 66.1 µM

CC(=O)[CH-]C(=O)c1ccccc1.CC(=O)[CH-]C(=O)c1ccccc1.Cc1cc([O-])ccc1Cl.Cc1cc([O-])ccc1Cl.[Ti+4]
GI50: 17.4 µM
TGI: 79.1 µM

CCN(CC)C(=S)SCN1C(=O)c2ccccc2S1(=O)=O
GI50: > 76.8 µM
TGI: > 100 µM

C[N+](C)(C)c1cc2c(nn1)Nc1ccccc1S2
TGI: 50.7 µM

COC(=O)C1=C(C)NC(C)=C(C(=O)OC)C1c1ccc(N=O)cc1
TGI: > 100 µM

COC1(OC)C=CC2C1C1C=CC2C1(OC)OC (configuration not stated)
TGI: > 100 µM

From PubChem BioAssay (NCI)
